Among all 52,000 compounds or so, about 1,700 (3.3%) were called active. Rule as the data show it: active = survival mostly below about 52% (no sharp cut-off); inactive = mostly above about 56%. This is one part of the list.
system: Wild type; assay: growth inhibition of S. aureus wild type versus tarO mutant, primary screen, teichoic acid synthesis inhibitors, RN4220, OD600 (AID 463173); settings: S. aureus RN4220 wild type/DeltatarO growth, OD600, 18 h, active compounds read low, screened at 18.75 µg/mL (by protocol)

SMILES | survival
COC(=O)C1=NNC2C(=O)N(c3ccccc3C(F)(F)F)C(=O)C12 (stereo unspecified) | inactive: 101%
Cc1cc(C(=O)Nc2c(C)cccc2C)n(-c2ccccc2)n1 | inactive: 86%
Cc1nn(Cc2ccccc2)c(C)c1CC(=O)O | inactive: 109%
COCCCNC(=O)c1ccc(Cn2c(SCc3ccc(F)cc3)nc3cccnc32)cc1 | inactive: 22%
O=C(OCc1cc(=O)n2nc(-c3cccs3)sc2n1)c1cccc(F)c1 | inactive: 98%
CC(C)CCN(C(=O)Nc1ccc(Cl)c(Cl)c1)C1CCN(C(C)C)CC1 | inactive: 59%
CC(C)c1nn2c(=O)cc(COC(=O)C3CCCCC3)nc2s1 | inactive: 70%
Cc1ccc(S(=O)(=O)c2nnn3c2nc(NC2CCCCCC2)c2sccc23)cc1C | inactive: 48%
CCCOc1cccc(C2c3c(oc4ccc(F)cc4c3=O)C(=O)N2CCCN2CCOCC2)c1 (stereo unspecified) | inactive: 88%
Cc1ccc(CN(Cc2ccco2)C(=O)c2ccccc2Br)o1 | inactive: 84%
CCOc1cc(/C=C2\SC(=NC)N(C)C2=O)c(Br)cc1OC(C)=O | inactive: 84%
CCCOc1ccc(-c2nonc2NC(=O)c2ccco2)cc1OCCC | inactive: 117%
CC1CCN(C(=O)c2cc3c(=O)n(C)c4cc(Cl)ccc4c3s2)CC1 | inactive: 129%
Cc1nc(-c2ccc(S(=O)(=O)N3CCN(c4cccc(C(F)(F)F)c4)CC3)cc2)co1 | inactive: 73%
Nc1cc(N)nc(SCC(=O)N2CCc3ccccc32)n1 | inactive: 109%
Cc1cc(Br)cc(C)c1NC(=O)c1sc2ncn(Cc3cccc(F)c3)c(=O)c2c1C | inactive: 90%
CCNC(=O)c1ccc(C)c(-n2c(C)nc3cccnc32)c1 | inactive: 72%
Cc1ccc(NC(=O)Cn2c(=O)c3ccc(Cl)cc3n3nncc23)cc1 | inactive: 62%
CCOc1ccc(-c2nnn(CCC#N)n2)cc1OC | inactive: 99%
CCCNC(=O)c1ccc(N2C(=O)c3ccccc3C2=O)cc1 | inactive: 99%
O=C(Cn1c(-c2cccs2)cc2ccccc21)N1CCN(c2ccc(Cl)cc2)CC1 | inactive: 74%
COc1cccc(-c2csc(-c3c(N)c(C(=O)c4ccc5c(c4)OCO5)n4ccccc34)n2)c1 | inactive: 95%
CCOc1ccc(C2C(C(=O)Nc3ccccc3)=C(C)Nc3nc(-c4ccccc4)nn32)cc1OC (stereo unspecified) | inactive: 111%
COc1ccc(-c2cn3c(n2)sc2cc(C(=O)NCCC4=CCCCC4)ccc23)cc1 | inactive: 80%
O=c1c2cnn(-c3ccc(F)cc3)c2ncn1Cc1ccccc1Cl | inactive: 76%
Cc1cc(C)n(CCc2nc3c4ccccc4nc(SCc4ccc(F)cc4)n3n2)n1 | inactive: 85%
